From PubChem BioAssay AID434955 (Southern Research Specialized Biocontainment Screening …, 2010) come the findings set out here.

Values joined by “and” are separate entries in the source; they are usually repeats but may differ in a detail not shown here. Equal entries are not always repeated. The list shows a part of the results. Further columns of the screen follow, without active or inactive calls. The list favours compounds with an active or inconclusive main result.

A short description of the assay: beta-lactam sensitization of Mtb H37Rv, H37Rv (AID 434955).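 Further: growth measured after seven days incubation then overnight dye step; 0% = bacteria only wells and 100% = bacteria with antibiotic.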 Particulars: M. tuberculosis H37Rv growth with meropenem, percent inhibition; measured here: primary screen without meropenem; at 25 µM.
As usually defined, the inhibition is the relative decrease from the control value, in per cent. Regarding `O=C(N/N=C/c1cccc(OCc2ccccc2)c1)c1ccc(Br)o1`, the inhibition was 64.3%.

For `c1ccc(-n2ncc3c(NCCCN4CCOCC4)ncnc32)cc1`, the inhibition was 3.87%.

Take `COc1ccc(OCC(=O)N2CCN(C(=O)COc3ccc(Br)cc3)CC2)cc1`: the inhibition was -5.27%.

Take `CN(/N=C/c1ccc(O)cc1O)c1nc(-c2ccccc2)cc(-c2ccccc2)n1`: the inhibition was -9.65%.

`Cn1cccc1Cc1nnc(SCC(N)=O)n1-c1ccc(F)cc1`: the inhibition was -4.56%.

With `O=C(NCCCN1CCCC1=O)Nc1ccc([N+](=O)[O-])cc1`, the inhibition turned out to be 3.37%.

For the molecule `COCCNC(=S)N/N=C(\C)c1cccc(OC)c1`, the inhibition was 5.82%.

As to `CCC(C(=O)Nc1ccccc1N1CCCC1)c1ccccc1` (stereo unspecified), the inhibition was found to be 19%.

As to `CC[C@@](C)(NS(=O)(=O)OCC(Cl)(Cl)Cl)c1ccccc1`, the inhibition worked out at 30.9%.

For `Clc1cccc2sc(N3CCOCC3)nc12`, the inhibition is -3.37%.

With `CC(=O)Nc1ccc(S(=O)(=O)NC2(C(F)(F)F)NC(=O)N(Cc3ccccc3)C2=O)cc1` (stereo unspecified), the inhibition is -4.59%.

As to `O=C(Nc1nc(-c2ccc3c(c2)OCO3)cs1)c1ccncc1`, the inhibition is -9.93%.

For the molecule `CCOC(=O)CN(Cc1sccc1C)C(=O)Nc1ccc(OCC)cc1`, the inhibition was -0.41%.

As for `CC(C)c1ccc(/C=C(\NC(=O)c2ccccc2)C(=O)NCCN2CCOCC2)cc1`, the inhibition was determined as 2.76%.

As to `Cc1cc(N2CCCCCC2)nc(-c2ccccc2O)n1`, the inhibition was found to be 41.2%.

Regarding `CCCCCCC(=O)Nc1nc(C)c(-c2csc(Nc3cc(Cl)ccc3OC)n2)s1`, the inhibition stood at 20.8%.

In the case of `CCC(C)NCCOCCOc1ccc(Cl)c2ccccc12` (stereo unspecified), the inhibition was 33.5%.

On to `CCOC(=O)CSc1nnc(-c2nnc(SCC(=O)OCC)n2CC)n1CC`, for which the inhibition is 3.91%.

`CCn1c(=O)cc(SCC(=O)N2CCN(C3CCCCC3)CC2)c2ccccc21`: the inhibition is 7.02%.

Take `CN1CCN(S(=O)(=O)c2ccc3[nH]cc(C(=O)O)c(=O)c3c2)CC1`: the inhibition stood at 0.23%.

As for `Cc1nc(C)c(-c2csc(NCc3ccccc3)n2)s1`, the inhibition was 9.91%.

For the molecule `CCOC(=O)N1CCN(C(=O)c2ccc3c(=O)n(Cc4ccccc4OC)c(=S)[nH]c3c2)CC1`, the inhibition was -15.9%.

`CC(=O)NCCc1ccc(S(=O)(=O)NC2OC(=O)c3ccccc32)cc1` (stereo unspecified): the inhibition was -0.49%.

In the case of `Cc1nnc(Sc2nc3c(c(=O)n(C)c(=O)n3C)n2Cc2ccccc2Cl)s1`, the inhibition worked out at 9.1%.

Consider `O=C(CN1Cc2ccccc2C1=O)Nc1ccc2c(c1)OCCO2`, for which the inhibition worked out at 9.54%.

Turning to `Cc1ccc(NC(=O)CCc2nnc3ccc(N4CCOCC4)nn23)cc1C`, the inhibition is -6.29%.

As for `O=C(CCSCc1ccccc1Cl)NC1CCCC1`, the inhibition is 2.51%.

`CCOC(=O)N1CCN(C(=O)Cn2c(=O)sc3ccccc32)CC1`: the inhibition was -1.63%.

As for `Cc1ccc2c3c(c(SCC(=O)Nc4nonc4C)nc2c1)CCCC3`, the inhibition was -0.19%.

For the molecule `NC(=O)C1CCCN(Cc2c(C(=O)N3CCc4ccccc4C3)nc3ccc(Cl)cn23)C1` (stereo unspecified), the inhibition is -5.22%.

For `CCCCCCOC(=O)NCC(O)c1ccccc1` (stereo unspecified), the inhibition is 6.28%.

Regarding `COC(=O)c1sc(S(=O)(=O)N2CCCCC2)c(C(=O)OC)c1C`, the inhibition was -6.84%.

As for `CCc1cc(C(N)=S)ccn1`, the inhibition is 97.6% and 40.1%.

As for `CSc1ncc(Cl)c(C(=O)Nc2cccc3ccccc23)n1`, the inhibition amounted to 29.6%.

Regarding `Cc1nn(-c2ccccc2)c(Cl)c1/C=N/NC(=O)c1ccn[nH]1`, the inhibition was -3.77%.

For the molecule `O=C(O)C1C2C=CC3(CN(C4CCCC4)C(=O)C13)O2` (stereo unspecified), the inhibition is -11.7%.

Consider `Cn1nc(-c2ccc(Cl)cc2)nc2c(=O)n(C)c(=O)nc1-2`, for which the inhibition is 99.4%.

For `Cc1ccc(S(=O)(=O)N2CCN(C(=O)c3ccccc3)CC2)cc1`, the inhibition was -0.71%.

As for `COc1ccc(F)c(-c2nc(CN3CCN(C(=O)c4ccco4)CC3)c(C)o2)c1`, the inhibition came out at 1.16%.

For the molecule `O=C(c1ccc(-c2ccc(Cl)cc2)o1)N1CCN(S(=O)(=O)c2cccs2)CC1`, the inhibition stood at 33.1%.

For `Cc1cc(CNC(=O)C2CCC(=O)N(Cc3ccccc3F)C2)on1` (stereo unspecified), the inhibition was found to be 1.46%.

As to `Cc1cc(C=C2C(=O)NC(=S)NC2=O)c(C)n1-c1ccc2c(c1)OCO2`, the inhibition is 14.7%.

`OC1c2cc(Br)ccc2N=C2CCCN21` (stereo unspecified): the inhibition was determined as 2.48%.

Take `CC(=O)Nc1ccc(S(=O)(=O)NCC(=O)OCC(=O)N2CCN(c3ccccc3)CC2)cc1`: the inhibition is -3.81%.

Turning to `CN1CCN(S(=O)(=O)c2ccc(NC(=O)c3ccc(Br)s3)cc2)CC1`, the inhibition was determined as 9.54%.

Consider `O=S(=O)(c1cnccc1N1CCN(CCO)CC1)N1CCCCC1`, for which the inhibition amounted to 5.61%.

On to `O=C(CSc1nc2ccccc2n1CC(=O)N1CCCC1)Nc1ccc2c(c1)OCO2`, for which the inhibition was -0.02%.

As for `CC1(C)CCCC2=C1CC1C(=O)N(Cc3cccnc3)C(=O)C1C2` (stereo unspecified), the inhibition is 3.23%.

`COc1cccc(/C=N/n2c(C3CCCCC3)n[nH]c2=S)c1OC`: the inhibition came to 1.94%.

As for `NC(=S)N/N=C/c1ccc2ccccc2c1`, the inhibition is 13.8%.

On to `Cc1nnc(SCC(=O)Nc2ccc3c(c2)OCCO3)s1`, for which the inhibition is 3.58%.

Regarding `O=c1[nH]c(=S)[nH]c(O)c1N=Nc1ccc(SC(F)F)cc1`, the inhibition was 26%.

`Cc1cc(C)c(OCC(=O)Nc2nc3ccccc3[nH]2)c(C)c1`: the inhibition was 23.2%.

As to `CCOc1ccc(S(=O)(=O)N(C)C2CCCCC2)cc1`, the inhibition was -3.16%.

Regarding `COc1cccc(OCc2cc(C(=O)N(C)Cc3nc(C)cs3)no2)c1`, the inhibition came to 10.8%.

Consider `O=C(CSc1nccn1Cc1ccco1)Nc1ccc(F)cc1`, for which the inhibition is 0.89%.

Take `O=C1OC(c2ccccc2)=C/C1=C/c1cccs1`: the inhibition is -3.59%.

Regarding `Cc1ccccc1CS(=O)(=O)c1nnc([C@H](CC(C)C)NC(=O)OC(C)(C)C)o1`, the inhibition was determined as 1.12%.

As to `O=C(Nc1ccccc1C(=O)NCc1ccccc1)c1ccccc1`, the inhibition is 17.4%.

For the molecule `COc1ccc(CCCNC(=O)C2CCC(=O)N(CC3CCCCC3)C2)cc1` (stereo unspecified), the inhibition was determined as 3.51%.

As to `CN(CC(=O)N1CCCC1)S(=O)(=O)c1cc(Cl)ccc1Cl`, the inhibition was -6.06%.

`CCOc1ccc(N(CC(=O)N2CCCCCC2)S(=O)(=O)c2ccc(C)cc2)cc1`: the inhibition is -5.92%.

Regarding `COc1ccc(S(=O)(=O)N2CCCC(C(=O)NCC3CCCO3)C2)cc1C` (stereo unspecified), the inhibition stood at 2.21%.

As to `COc1ccccc1NC(=O)CCSc1nnnn1C`, the inhibition is -1.99%.

Turning to `CCOc1ccc(N(CC(=O)NCc2cccc(OC)c2)S(=O)(=O)c2c(C)noc2C)cc1`, the inhibition was -5.82%.

For `CCCN(CC1CCCO1)C(=O)c1cc(COc2ccc(F)cc2F)on1` (stereo unspecified), the inhibition is -0.76%.

`CN(c1ccc(C(=O)Nc2ccccc2Sc2ccccc2)cc1)S(C)(=O)=O`: the inhibition was 41.5%.

`CC(C)OP(=O)(OC(C)C)C(Nc1ccccc1)c1ccc2c(c1)OCO2` (stereo unspecified): the inhibition is -3.85%.

With `C=CCc1cccc(/C=N/NC(=O)COc2ccc(-n3cnnn3)cc2)c1O`, the inhibition was found to be 5.24%.

Consider `COc1ccccc1-c1nnc(NC(=O)CCS(=O)(=O)c2ccccc2)o1`, for which the inhibition was -1.92%.

For the molecule `Cc1ccc(S(=O)(=O)NC2=NCN(CCOC(=O)c3ccc([N+](=O)[O-])cc3)CN2)cc1`, the inhibition was -9.85%.
